Results reported in PubChem BioAssay AID686978 (National Center for Advancing Translational Sciences (NCATS), 2013).
Hit rate of the full screen: of about 420,000 compounds, about 64,000 (15%) were called active. The shares of active, inactive and inconclusive entries below differ from those in the screen. Calls come from the whole dose curve; as a rule, active = well fitted inhibition curve with a large enough effect; inconclusive = small, poorly fitted or top-dose-only effect; inactive = flat fitted curve, though single readings scatter. No potency is given beside an inconclusive call; the fits are too rough.

assay: qHTS for Inhibitors of human tyrosyl-DNA phosphodiesterase 1 (TDP1): qHTS in cells in absence of CPT; details: DT40 Tdp1-/- hTDP1 cells, no CPT, ATP luminescence, 48 h; series mostly up to 46.2 µM; note: nearly all actives have a fitted effect of over 55% in size
How it was run: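 No-CPT arm: Tdp1-/-;hTDP1 DT40 cells (400/well) plus compounds, incubated ≥48 hr at 37 °C. Readout CellTiter-Glo luminescence.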
Potency is the fitted concentration of half-maximal effect; tags give direction and shape of the fitted curve.

| Compound | Potency |
| --- | --- |
| CCc1cc(=O)[nH]c(SCc2nc(-c3cccc(Cl)c3)no2)n1 | active: 16.4 µM |
| CC[C@@H]1CCCCc2ccccc2[C@@H](C(=O)C[C@H](O)CC(C)=O)OC1=O | inactive |
| COc1ccc(-c2nnc(SCC(=O)c3ccc[nH]3)o2)cc1 | inactive |
| COc1ccc(-n2nnnc2-c2cnc(N3CCCC3)nc2C(F)(F)F)cc1 | active: 9.2 µM |
| CC(=O)N1CCc2c(sc(NC(=O)Cc3ccc(F)cc3)c2C(N)=O)C1 | inconclusive [inhibitor, single point] |
| Clc1ccc(CN2CCSCC2)c(Cl)c1 | inactive |
| O=C(COC(=O)CSc1ccc(F)cc1)NCC1CCCCC1 | inconclusive [inhibitor, partial curve, poor fit] |
| O=C(NCCOc1ccccc1F)c1cc([N+](=O)[O-])ccc1N1CCOCC1 | active: 3.66 µM |
| COCCCNC(=O)CN1C(=O)/C(=C/c2ccccc2)Sc2ccccc21 | active: 14.6 µM |
| Oc1ccc(N2CCN(C(c3cccs3)c3nnnn3CCc3ccccc3)CC2)cc1 (stereo unspecified) | inconclusive [inhibitor, single point] |
| CCCNC(=O)C1(C)CCN(C(=O)C(c2ccccc2)c2ccccc2)C1 (stereo unspecified) | inconclusive [inhibitor, partial curve] |
| CC1CCC2(CC1)NC(=O)N(NC(=O)c1ccc(OC(C)C)cc1)C2=O (stereo unspecified) | inconclusive [inhibitor, partial curve] |
| Cc1ccc(C(=O)NCc2ccc3c(c2)OCO3)cc1C | inconclusive [inhibitor, partial curve, poor fit] |
| Cc1ccc(C)c(/C=N/Nc2nc3ccccc3c(=O)n2O)c1 | inconclusive [inhibitor, single point] |
| O=C(NCc1ccncc1)[C@@H]1CCCN1C(=O)[C@H]1CCCN1C(=O)c1c(F)cccc1F | inactive |
| CC(Sc1nnc(-c2cccs2)n1-c1ccccc1)C(=O)NCc1ccco1 (stereo unspecified) | inconclusive [inhibitor, single point] |
| C#CCCCCCCCCCCCCCCCC(=O)O | inactive |
| CCOCCCn1c(SCC(=O)Nc2ccc(CC)cc2)nc2ccccc2c1=O | active: 13 µM |
| C=CCN1C2CCCC1CC(NC(=S)Nc1ccc(Cl)cc1)C2 (stereo unspecified) | inconclusive [inhibitor, single point] |
| C/C(=N/NC(=O)c1cccs1)c1ccc(NC(=O)COc2ccc(Cl)cc2Cl)cc1 | inconclusive [inhibitor, partial curve] |
| CCOC(=O)N1CCN(Cc2nc3cc(NC(=O)C(C)C)ccc3n2CC)CC1 | inconclusive [inhibitor, single point] |
| Cc1ccc(NC(=S)Nc2ccccn2)c(C)c1 | active: 5.17 µM |
| CCN(CC)C(=O)COc1ccc2c(-c3ccc(OC)cc3)cc(=O)oc2c1 | inconclusive [inhibitor, single point] |

| Compound | Potency |
| --- | --- |
| CC(C)OC(=O)C(C#N)c1nc2ccccc2nc1N1CCN(Cc2ccccc2)CC1 (stereo unspecified) | active: 23.1 µM |
| CN1CC(=O)N2[C@H]3c4ccccc4OC[C@@H]3[C@H](c3ccccc3)[C@]2(C)C1=O | inactive |
| COC(=O)c1ccc(-n2ccnc2)cc1 | inactive |
| CC(=O)Nc1ccccc1OCc1nnc(-c2ccc(Cl)cc2)o1 | inconclusive [inhibitor, partial curve] |
| COc1ccc(CN(C)C(=O)COC(=O)c2c(-c3ccccc3Cl)noc2C)cc1 | inconclusive [inhibitor, single point] |
| Cc1ccnc2nc(C(=O)Nc3ccc(N4CCOCC4)cc3)nn12 | inconclusive [inhibitor, single point] |
| CCc1ccc(NCc2ccc(OC)c(Cn3ccnc3)c2)cc1 | inconclusive [inhibitor, single point] |
| CCn1c(=O)c(C(=O)Nc2nc3ccccc3[nH]2)c(O)c2ccccc21 | active: 2.59 µM |
| Cc1cc(C)n(CCC(=O)N/N=C/c2c(O)ccc3ccccc23)n1 | active: 4.61 µM |
| CCOc1ccc(NC(=O)CS(=O)(=O)c2cn(CC)c3ccccc23)cc1 | inconclusive [inhibitor, single point] |
| COc1cc(NC(=O)Cn2ccc3ccccc3c2=O)cc(OC)c1OC | inactive |
| COc1cccc(NC(=O)[C@H](Cc2c[nH]c3ccccc23)NC(=O)[C@@H]2Cc3ccccc3CN2)c1 | inconclusive [inhibitor, single point] |
| Cc1ccccc1Cn1c(=O)c2c(nc3n2CCCN3Cc2ccccc2)n(C)c1=O | inconclusive [inhibitor, single point] |
| O=C(c1ccc(F)c(S(=O)(=O)N2CCOCC2)c1)N(c1ccccc1)c1ccccn1 | inactive |
| Cc1ccc(-n2ncc(C(=O)NCCN3CCN(C)CC3)c2C2CCN(C(=O)OC(C)(C)C)CC2)cc1 | inconclusive [inhibitor, single point] |
| Cc1ccc(S(=O)(=O)Nc2ccccc2CNc2ncc(Br)cc2Br)cc1 | inconclusive [inhibitor, single point] |
| O=C(O)c1ccc(Nc2nc(-c3ccc([N+](=O)[O-])cc3)nc3ccccc23)cc1 | inconclusive [inhibitor, partial curve, poor fit] |
| O=C(CSc1nc(N2CCOCC2)nc(N2CCOCC2)n1)Nc1ccc(Cl)cc1Cl | inconclusive [inhibitor, single point] |
| CCOc1ccc(CNC(=O)CN2N=C(c3ccccc3)CCC2=O)cc1OC | inactive |
| O=[N+]([O-])c1ccc(OCCn2cnc3ccccc32)cc1 | inconclusive [inhibitor, single point] |
| COc1ccc(-n2cc(-c3ccccc3)c3c(=S)nc[nH]c32)cc1 | inconclusive [inhibitor, single point] |
| CCOc1cc(/C=N/N=C2/NC(=O)C(CC(=O)O)S2)ccc1OCc1ccc(Cl)cc1 (stereo unspecified) | inactive |
| C[C@H]1CN([C@@H](C)CO)C(=O)CCCn2cc(nn2)CO[C@@H]1CN(C)S(=O)(=O)c1ccc(Cl)cc1 | inactive |
